Experimental data reported in PMC6769691 (International Journal of Molecular Sciences, 2019).

Assays:
Conditions in all cases: both partners purified
NGR-hTNF = NGR-hTNF (human); experiment: crystal structure; tetragonal crystals from 2.8 M MgSO4, 1 M NaCl, 0.1 M MES pH 6.0; data at 100 K; 2.65 Å
[1] = biological target: T1, TNFR1 fused to the Fc portion of an IgG molecule (UniProt P19438 30-455); experiment: SPR; standard kinetics: NGR-hTNF or hTNF 0.6–83 nM injected in duplicates over TNFR1 and TNFR2 (Fc fusions on immobilized anti-Fc Ab) at 200 RU; regeneration with Gly-HCl pH 2; data of the 1:2 (bivalent) model reported
[2] = biological target: T1, TNFR1 fused to the Fc portion of an IgG …; experiment: SPR; stoichiometry evaluation at different receptor densities (anti-Fc Ab immobilized on C1, CM4 and CM5 chips)
[3] = biological target: T2, TNFR2 fused to the Fc portion of an IgG molecule (UniProt P20333 23-257); experiment: SPR; standard kinetics: NGR-hTNF or hTNF 0.6–83 nM injected in duplicates over TNFR1 and TNFR2 (Fc fusions on immobilized anti-Fc Ab) at 200 RU; regeneration with Gly-HCl pH 2; data of the 1:2 (bivalent) model reported
T2 sequence (P20333 23-257): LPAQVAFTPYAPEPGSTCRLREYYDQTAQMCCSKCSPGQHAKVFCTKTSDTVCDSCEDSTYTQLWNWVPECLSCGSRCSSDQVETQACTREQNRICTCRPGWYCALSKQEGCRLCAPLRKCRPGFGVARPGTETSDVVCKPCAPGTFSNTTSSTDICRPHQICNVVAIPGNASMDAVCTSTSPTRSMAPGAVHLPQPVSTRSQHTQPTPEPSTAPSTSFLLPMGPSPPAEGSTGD

[4] = biological target: T2, TNFR2 fused to the Fc portion of an IgG …; experiment: SPR; stoichiometry evaluation at different receptor densities (anti-Fc Ab immobilized on C1, CM4 and CM5 chips)

Sequence of NGR-hTNF (chain, as listed by the source): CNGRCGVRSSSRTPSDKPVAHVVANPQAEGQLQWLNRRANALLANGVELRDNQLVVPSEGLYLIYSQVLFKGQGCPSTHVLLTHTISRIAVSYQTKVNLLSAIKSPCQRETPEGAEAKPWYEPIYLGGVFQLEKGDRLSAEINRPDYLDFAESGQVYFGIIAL

B1: NGR-hTNF (ligand)
chain: not shown
modifications: homotrimer; CNGRC motif presumably cyclised by a Cys1-Cys5 disulfide; native TNF disulfide / homotrimer; CNGRC motif presumably cyclised by a Cys1-Cys5 disulfide; native TNF disulfide
stoichiometry N (NGR-hTNF): 3

B2: NGR-hTNF (ligand)
chain: not shown
modifications: homotrimer; CNGRC motif presumably cyclised by a Cys1-Cys5 disulfide; native TNF disulfide / extracellular domain by convention; IgG Fc carrier left out (two copies assumed from Fc dimerisation) …
Kd [1]: 3.6 nM
koff1 [1]: 0.00158 s⁻¹
koff2 [1]: 0.00119 s⁻¹
kon1 [1]: 468000 M⁻¹ s⁻¹
kon2 [1]: 0.00429 RU^−1·s^−1
t1/2 1 [1]: 7.4 min
t1/2 2 [1]: 9.9 min
stoichiometry N [2]: 3 receptors per cytokine trimer and 2 receptors per cytokine trimer

B3: NGR-hTNF (ligand)
chain: not shown
modifications: homotrimer; CNGRC motif presumably cyclised by a Cys1-Cys5 disulfide; native TNF disulfide
Kd [3]: 57 nM
koff1 [3]: 0.0336 s⁻¹
koff2 [3]: 0.00039 s⁻¹
kon1 [3]: 588000 M⁻¹ s⁻¹
kon2 [3]: 0.00054 RU^−1·s^−1
t1/2 1 [3]: 0.3 min
t1/2 2 [3]: 29.4 min
stoichiometry N [4]: 2 receptors per cytokine trimer and 3 receptors per cytokine trimer

Where “and” joins values, the source holds several entries; their conditions need not be identical. Identical values can stand only once.
